The text below walks through data of the supplement of paper PMC10338343.

± gives the standard deviation. This is a selection; strong and weak results do not stand in their true shares.
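Also: 1 nM active piRISC with 0.1 nM target library at 33 °C single turnover.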

The subject of this assay is MIWI (PIWIL1) piRISC loaded with L1MC piRNA (30 nt). Nature of the assay: pre-steady-state target cleavage rate (min^-1); MIWI and MILI are mouse PIWI proteins and EfPiwi is from a freshwater sponge; tags in brackets are library labels; higher = faster piRNA-guided slicing of the target. The following applies: guide: L1MC piRNA 5'p-UAACUAAAUACUAUGCAAGCUGUAGGUCCU; auxiliary factor: none (no GTSF1). The gist of the method: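 Reactions were run for 0–8 or 0–960 min at 33 °C in HEPES–potassium acetate buffer, combining 1 nM active affinity-purified piRISC with one synthetic guide, […] transcribed, DNA-blocked target RNA library and, in some cases, 500 nM GTSF1 partner protein. Sequencing of uncleaved targets followed, with normalisation to depth and to weakly complementary targets. Three trials were pooled, k3 was capped at 0.0001 min^-1, and the pre-steady-state cleavage rate was taken from a burst-and-steady-state fit.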
Take UCCUGGAUGUGCUUGCCUAGUAUUUAGUUA: the “pre-steady-state target cleavage rate” value is 0.0235 ± 0.0064.

Consider UCCUGGUACUGCUUGCAUAGAAUUUAGUUA, for which the “pre-steady-state target cleavage rate” value was 0.0089 ± 0.0047.

For UCCUCCUUCAGCUUCCAUAGUAUUUAGUUA, the “pre-steady-state target cleavage rate” value was 0.00274 ± 0.0017.

On to UCCACCUUCAGCUUGCUUAGUAUUUAGUUA, for which the “pre-steady-state target cleavage rate” value was determined as 0.0231 ± 0.005.

In the case of UCCUGGAUGUGCUUGCAAAGUAUUUAGUUA, the “pre-steady-state target cleavage rate” value was 0.0227 ± 0.0059.

On to UGGACCUACAGCUUGCAUUGUAUUUAGUAA, for which the “pre-steady-state target cleavage rate” value came to 0.025 ± 0.0056.

With UCCUGGUACAGCUUGCAUUGUAUUUAGUAA, the “pre-steady-state target cleavage rate” value amounted to 0.00535 ± 0.0031.

Take AGGAGCUACAGCUUGCUUAGUAUUUAGUUA: the “pre-steady-state target cleavage rate” value came to 0.0523 ± 0.011.

In the case of UGGACCUACAGCUUGUAUAGUAUUUAGUUA, the “pre-steady-state target cleavage rate” value was found to be 0.0563 ± 0.012.

Take UCCUGGAUGAGCUUGCAUAGUAUUUAGAUA: the “pre-steady-state target cleavage rate” value was 0.033 ± 0.0083.

In the case of UCCUGCUACAGCUUGCAUAGUAAAUAGUUA, the “pre-steady-state target cleavage rate” value stood at 0.00667 ± 0.0021.

Take UCGACCUACAGCUUGCAUAGUUAAUAGUUA: the “pre-steady-state target cleavage rate” value was 0.00697 ± 0.0029.

In the case of UCCUGGAUGAGCUAGCAAAGUAUUUAGUUA, the “pre-steady-state target cleavage rate” value turned out to be 0.0055 ± 0.0027.

For UCCACCUACAGCUUGCAUAGUAUUUACUAA, the “pre-steady-state target cleavage rate” value stood at 0.00669 ± 0.0028.

Consider UCGACCUACAGCUUGACAUAGUAUUUAGUUA, for which the “pre-steady-state target cleavage rate” value is 0.00438 ± 0.0026.

As to UCCUGCUAGAGCUUGCAUAGUAUUUACUUA, the “pre-steady-state target cleavage rate” value was 0.012 ± 0.0029.

For UCCUGGGACAGCUUGCAUAGUAUUUAGUUA, the “pre-steady-state target cleavage rate” value stood at 0.0815 ± 0.017.

For the sequence UCCUGGAUCAGCAUGCAUAGUAUUUAGUUA, the “pre-steady-state target cleavage rate” value was found to be 0.0154 ± 0.004.

In the case of UCCUGCUACAGCCUUGCAUAGUAUUUAGUUA, the “pre-steady-state target cleavage rate” value was 0.0245 ± 0.0046.

With AGGACCUACACCUUGCUUAGUAUUUAGUUA, the “pre-steady-state target cleavage rate” value is 0.046 ± 0.0082.

Consider UCGACCUACAGCUUGCAAAGUAUUUAGUAA, for which the “pre-steady-state target cleavage rate” value was determined as 0.0245 ± 0.0048.

With AGGACCUAGUCCUUGCAUAGUAUUUAGUUA, the “pre-steady-state target cleavage rate” value turned out to be 0.052 ± 0.01.

With UCCUGGAUCAGCUGCAUAGUAUUUAGUUA, the “pre-steady-state target cleavage rate” value worked out at 0.00498 ± 0.0023.

Turning to AGCUCCUACAGCUUGCAUAGUAUUUAGAAA, the “pre-steady-state target cleavage rate” value was determined as 0.00544 ± 0.0029.
